For experiment [1], the target named is SARS-CoV-2 membrane (M) protein, transiently expressed (SARS-CoV-2) (UniProt P0DTC5). Put plainly: co-IP; HGS truncations immunoprecipitated by M protein (Supplemental Figure 6C); cells and tags not shown.
The target in experiment [2] is purified FLAG-M protein (SARS-CoV-2 M) (SARS-CoV-2) (UniProt P0DTC5). Put plainly: pull-down; both purified.
Experiment [3] has as its target SARS-CoV-2 envelope small membrane (E) protein, transiently expressed (SARS-CoV-2) (UniProt P0DTC4). Nature of the experiment: co-IP.
Experiment [4] addresses SARS-CoV-2 membrane (M) protein, transiently expressed (SARS-CoV-2) (UniProt P0DTC5). Put plainly: co-IP.
Experiment [5] deals with hepatocyte growth factor-regulated tyrosine kinase substrate (HGS) (UniProt O14964). Put plainly: co-IP.

No constants are given. Whether binding was seen depends on the method and setting. For some assays here: In cells and extracts the contact can be indirect. Some entries that bind do so weakly or less than the wild type.

In the case of “HGS 1-290 (from UniProt O14964 1-290) (domain or fragment)”, in experiment [1], the binding entry is “binds”. Regarding “purified HIS-HGS protein (from UniProt O14964 1-777)”, the binding result in experiment [2] is reported as “binds”. Turning to “HGS 1-390 (co-IP construct) (from UniProt O14964 1-390) (domain or fragment)”, in experiment [1], the binding result is “binds”.

For the substance “hepatocyte growth factor-regulated tyrosine kinase substrate (HGS) (from UniProt O14964 1-777)”, the binding result in experiment [3] is “no binding”; in experiment [4] it was “binds”. For the substance “SARS-CoV-2 membrane (M) protein, transiently expressed (from UniProt P0DTC5 1-222)”, the binding entry in experiment [5] was “binds”. On to “HGS 1-509 (from UniProt O14964 1-509) (domain or fragment)”, for which the binding result in experiment [1] is “binds”.

Consider “SARS-CoV-2 envelope small membrane (E) protein, transiently expressed (from UniProt P0DTC4 1-75)”, for which the binding result in experiment [5] was “no binding”.

For the origin of these results see article PMC12948427 (The Journal of Clinical Investigation, 2025).
